According to the supplement of paper PMC3334620:
In all, about 33,000 sequences were measured (“E-score (-0.5 to 0.5)”: median about -0.011, highest 2% from about 0.28 on). The list shows a part of the results.

Molecular target: T1, Gcr1 (UniProt P07261)
T1 sequence: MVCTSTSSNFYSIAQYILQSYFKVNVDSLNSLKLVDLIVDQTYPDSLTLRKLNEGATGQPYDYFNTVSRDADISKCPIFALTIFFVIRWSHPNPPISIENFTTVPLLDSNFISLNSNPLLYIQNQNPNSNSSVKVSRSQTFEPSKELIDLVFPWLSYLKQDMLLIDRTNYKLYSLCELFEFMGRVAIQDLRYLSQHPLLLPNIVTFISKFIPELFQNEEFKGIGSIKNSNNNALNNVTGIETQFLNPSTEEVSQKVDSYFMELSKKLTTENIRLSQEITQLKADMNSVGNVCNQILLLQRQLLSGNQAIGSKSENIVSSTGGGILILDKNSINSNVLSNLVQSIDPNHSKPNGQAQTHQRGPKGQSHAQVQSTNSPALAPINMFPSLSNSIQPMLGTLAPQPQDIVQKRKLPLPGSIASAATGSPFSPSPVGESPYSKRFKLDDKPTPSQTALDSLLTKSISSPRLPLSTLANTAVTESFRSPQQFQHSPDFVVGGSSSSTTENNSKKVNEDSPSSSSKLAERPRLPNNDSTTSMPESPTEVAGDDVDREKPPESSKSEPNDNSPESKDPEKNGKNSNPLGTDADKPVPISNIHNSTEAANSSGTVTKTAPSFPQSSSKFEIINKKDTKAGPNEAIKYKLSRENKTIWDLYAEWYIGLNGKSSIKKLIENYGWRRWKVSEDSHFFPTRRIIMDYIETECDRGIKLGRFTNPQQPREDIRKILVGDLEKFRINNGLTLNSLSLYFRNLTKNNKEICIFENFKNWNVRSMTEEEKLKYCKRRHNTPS
Test: PBM E-score (8-mer binding enrichment) (E-score (-0.5 to 0.5)); higher = stronger / more preferred TF binding; most listed sequences are background and not binding sites
Settings: protein concentration: 100 nM; construct: GST-full length
Method in brief: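 Masliner-normalised scans of fluorescent anti-GST signal were the basis for scoring. That signal came from GST-tagged yeast transcription factors applied at about 100-200 nM to double-stranded universal all-10-mer Agilent arrays on fresh or once-stripped slides. Each ungapped eight-base word, pooled with its reverse complement, received an E-score from the Universal PBM Analysis Suite.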

Row | Sequence | PBM E-score
1 | CGTCTCAA | 0.0914
2 | AAAGAAAA | -0.0271
3 | GCTTACGA | -0.00571
4 | AACCTCTG | -0.0338
5 | CCCTCCCA | -0.0295
6 | AACAAGTA | 0.172
7 | CCTGGGAC | -0.0336
8 | CGGGGTCA | -0.096
9 | TGCGCCAA | 0.0168
10 | GGAAAGAA | 0.17
11 | ATGGTATA | -0.0384
12 | TGGCGCCA | 0.37
13 | ACTGGGTC | -0.0289
14 | GAATAGTC | -0.165
15 | TATCCCCA | 0.052
16 | GCGTAATA | 0.0387
17 | AGTACGCG | -0.168
18 | GACTCGGC | -0.201
19 | CTTCCGGA | 0.347
20 | AAGATCCA | 0.107
21 | CTTTCTTA | -0.025
22 | GTTCAATA | 0.102
23 | GTAAACAA | -0.0071
24 | CGCCATCC | 0.0576

Row | Sequence | PBM E-score
25 | GTGTCTTA | 0.127
26 | ACCATAGT | -0.12
27 | GCTATACA | -0.167
28 | CACTCCAA | -0.0296
29 | ATAGCTCC | -0.129
30 | CAAAAGTC | -0.179
31 | ATGGGAAA | -0.0125
32 | CCGCTTTC | -0.147
33 | AGCCGCAA | 0.137
34 | GCACCAGA | 0.244
35 | ACTGAAGC | 0.0268
36 | CACTCCTG | -0.156
37 | TCACGAGA | -0.0874
38 | CGACCTCG | -0.169
39 | ACAATAAT | -0.0486
40 | ATGCAAAG | 0.129
41 | AACGCGAC | 0.0323
42 | ATTACCTC | -0.173
43 | GCGTTAGA | -0.177
44 | AATTAACG | -0.00943
45 | CAAACGCG | 0.0541
46 | ATAGTCAG | -0.227
47 | GGGCTTCA | 0.071
48 | GACAAACA | -0.0622

Row | Sequence | PBM E-score
49 | TGATGCAA | -0.0566
50 | ATCTGGTC | 0.104
51 | ACGTATAT | 0.197
52 | CCCGAAAC | 0.191
53 | AATGCACT | -0.0941
54 | CCATTGTA | 0.0293
55 | TACAAGCA | 0.218
56 | TGCCGACA | 0.0383
57 | AAGAATTA | -0.0546
58 | GAAAGTCA | -0.0646
59 | AAAGCCCA | -0.0697
60 | ATGATAGC | -0.0287
61 | CAAAATTC | 0.306
62 | CTGAAGGC | -0.104
63 | GTCTAGAA | 0.00523
64 | TATTTAGA | 0.141
65 | CATCCCCG | 0.229
66 | ACCCGGAA | 0.163
67 | CGGGCGGA | -0.108
68 | AAAGATAA | -0.024
69 | GGCCTTAC | -0.228
70 | ACCCTATA | -0.118
71 | ATTCCATC | 0.0862
72 | AGGAAACT | -0.0906

Row | Sequence | PBM E-score
73 | CTTATCAC | 0.183
74 | GGATGCGA | 0.155
75 | CTACAGGA | 0.204
76 | CGGGCTCC | 0.214
77 | AAATGATC | 0.0161
78 | CAGGACCG | -0.117
79 | ACAGGATC | 0.197
80 | CGTGTGTC | 0.0324
81 | ATGCTTCG | -0.189
82 | ACGTTTAG | -0.0644
83 | GCCAATTA | 0.12
84 | CGAAGGGC | -0.363
85 | CCCAATTA | 0.143
86 | GAAGTGAC | -0.208
87 | CCACATGA | -0.0615
88 | GAAACGAA | 0.117
89 | AAAATATG | 0.107
90 | CGGGACTA | -0.0407
91 | CTCACGTC | -0.146
92 | ACTACAAT | 0.0736
93 | GGCGCGCC | 0.243
94 | CTAGCCGC | 0.00282
